Source: the supplement of paper PMC4604168 (melanoma cell lines)
The other results are listed elsewhere or left out. Many values rest on one well or one pass, so single values are uncertain.

test system: LOXIMVI; test: cell count relative to DMSO control; melanoma cells; higher = more viable cells; details: library dose: standard library concentration; 72 h; first compound 2 µM
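Further: cells treated in 1,536-well plates, then fixed and DAPI-stained, with nuclei counted from automated high-throughput microscope images.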

| Structure (SMILES) | cell count [%] |
| --- | --- |
| C[C@@H](N)c1ccc(C(=O)Nc2ccnc3[nH]ccc23)cc1 + CO[C@@H]1[C@H](N(C)C(=O)c2ccccc2)C[C@H]2O[C@]1(C)n1c3ccccc3c3c4c(c5c6ccccc6n2c5c31)C(=O)NC4 [Midostaurin] (partner dose 0.4 µM) | 35.5 |
| Cn1sc(=O)n(Cc2ccccc2)c1=O + Nc1cccc2c1CN(C1CCC(=O)NC1=O)C2=O [lenalidomide] (partner dose 5 µM) | 96.1 |
| Cn1sc(=O)n(Cc2ccccc2)c1=O + COc1cc2c(Oc3ccc4[nH]c(C)cc4c3F)ncnc2cc1OCCCN1CCCC1 [cediranib] (partner dose 2 µM) | 61.4 |
| C[C@@H](N)c1ccc(C(=O)Nc2ccnc3[nH]ccc23)cc1 + Cn1sc(=O)n(Cc2ccccc2)c1=O [TDZD-8] (partner dose 2 µM) | 98.3 |
| C[C@@H](N)c1ccc(C(=O)Nc2ccnc3[nH]ccc23)cc1 + CC(C)C[C@H](NC(=O)[C@H](Cc1ccccc1)NC(=O)c1cnccn1)B(O)O [Bortezomib] (partner dose 0.005 µM) | 9.69 |
| CCCCCCCCCCCCCCCCCCOP(=O)([O-])OC1CC[N+](C)(C)CC1 [Perifosine] + C#Cc1cccc(Nc2ncnc3cc(OCCOC)c(OCCOC)cc23)c1 [erlotinib] (partner dose 4 µM) | 92 |
| Cn1sc(=O)n(Cc2ccccc2)c1=O + CNC(=O)c1cc(Oc2ccc(NC(=O)Nc3ccc(Cl)c(C(F)(F)F)c3)cc2)ccn1 [sorafenib] (partner dose 2 µM) | 164 |
